Assay results: the supplement of paper PMC10126150
Sequences with one replicate were seen in a single cluster, so their values are uncertain.

System: ATP
Test: switch fluorescence ratio, 500 uM ATP over buffer (Cy3 cluster intensity, sum of 5 cycles each) (fold (ratio)); higher = stronger signal-on switching upon ATP binding; sequences stand for … in TCGTCGGCAGCGTCAGATGTGTATAAGAGACAGTTTTTTTTTTTTTTTTTTTTTTTTT…TC
Conditions: aptamer strand: ATP DNA aptamer (quencher-CACCTGGGGGAGTATTGCGGAGGAAGG + anchor), 100 nM annealed; ATP concentration: 500 uM; one replicate
How it was run: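 Exposure to 500 uM ATP lasted 15 min at 22 °C before imaging, and a selection-buffer image was taken beforehand, for Cy3-labelled switching-strand clusters on a modified Illumina MiSeq flow-cell annealed to 100 nM quencher-labelled ATP aptamer. Five buffer/ATP cycles were run with NaOH stripping and re-annealing between them. The fluorescence ratio per cluster is summed target-cycle over summed buffer-cycle Cy3 intensity, averaged per switch-domain sequence. Clusters outside 100-1000 RFU were excluded.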

TTCAACGATT was tested, and the switch fluorescence ratio was 0.981.

TCCTTGCGCT was tested, and the switch fluorescence ratio was 1.61.

With TTACTACAGT the switch fluorescence ratio was 1.02.

In the case of GTACTTAAAC, the switch fluorescence ratio is reported as 1.1.

With TTTCTTTTCC the switch fluorescence ratio was 1.08.

For GCAATGAGTG, the switch fluorescence ratio was 1.06.

TTTGAAGATA showed a switch fluorescence ratio of 1.02.

AGATACTTGG gave a switch fluorescence ratio of 1.

Sequence CGGATAGTTT has a switch fluorescence ratio of 0.963.

TACTTGCGTC was tested, and the switch fluorescence ratio was 1.

Work on CAATAATTGA yielded a switch fluorescence ratio of 0.981.

Work on AGGAAAGCAA yielded a switch fluorescence ratio of 1.47.

Sequence GTAGCAACG has a switch fluorescence ratio of 1.18.

In the case of TAGATATCTA, the switch fluorescence ratio is reported as 1.04.

For TATATGTAAA, the switch fluorescence ratio was 1.02.

Sequence ATTCTTATC has a switch fluorescence ratio of 0.941.

TAGTTTCGAA gave a switch fluorescence ratio of 0.974.

CGTTGTACT was tested, and the switch fluorescence ratio was 1.05.

Sequence AGTCAAGTTT has a switch fluorescence ratio of 1.01.

Sequence TTAGCTGGAG has a switch fluorescence ratio of 1.03.

Sequence CAATAGGGAA has a switch fluorescence ratio of 0.954.

TAATCCGGTT gave a switch fluorescence ratio of 0.979.

GTTTGTGCGC gave a switch fluorescence ratio of 0.987.

In the case of GCGCGGAATA, the switch fluorescence ratio is reported as 1.04.

With CAACTCATC the switch fluorescence ratio was 1.04.

Work on GTAAGAGAGG yielded a switch fluorescence ratio of 0.967.

Sequence GCTCACAATG has a switch fluorescence ratio of 1.12.

Sequence CTTAGCCGGT has a switch fluorescence ratio of 0.995.

Sequence ACCACTTAAG has a switch fluorescence ratio of 1.04.

CGTTTCTTAT was tested, and the switch fluorescence ratio was 0.954.

Sequence AGAGACGGT has a switch fluorescence ratio of 1.

GAAATCGCTC was tested, and the switch fluorescence ratio was 1.03.

In the case of TCATCCCGCT, the switch fluorescence ratio is reported as 1.73.

For CCGGGATGAA, the switch fluorescence ratio was 1.09.

Sequence TGGGGCGCAG has a switch fluorescence ratio of 0.991.

AGATCAGTCC gave a switch fluorescence ratio of 1.04.

In the case of TTAGCGTCAA, the switch fluorescence ratio is reported as 1.03.

In the case of CCGGTAACTA, the switch fluorescence ratio is reported as 1.03.

ATCGACTTAA was tested, and the switch fluorescence ratio was 1.04.

TATGCTATCT showed a switch fluorescence ratio of 0.994.

TCATCCTATT gave a switch fluorescence ratio of 0.997.

With CTGGGCGAGC the switch fluorescence ratio was 1.01.

AGCACGCATG gave a switch fluorescence ratio of 0.996.

With TTGTGAGCGG the switch fluorescence ratio was 1.16.

Work on GACGGAAATG yielded a switch fluorescence ratio of 1.06.

GCACACCTTC gave a switch fluorescence ratio of 1.23.

With TTGGGGAGC the switch fluorescence ratio was 0.982.

CTAGGGGAAG gave a switch fluorescence ratio of 0.996.

TTTCAACCC gave a switch fluorescence ratio of 1.06.

For TACAGGAGTG, the switch fluorescence ratio was 0.956.

With AACTGCAAGG the switch fluorescence ratio was 1.03.

With GTAGAATTA the switch fluorescence ratio was 0.985.

TGAAAGTAGT was tested, and the switch fluorescence ratio was 0.99.

GGTGTATCG gave a switch fluorescence ratio of 0.994.

With CACTTGATCG the switch fluorescence ratio was 1.05.

With ATCGGTGCA the switch fluorescence ratio was 1.

In the case of TTTACTATGT, the switch fluorescence ratio is reported as 1.03.

CGCGCCCATT showed a switch fluorescence ratio of 1.04.

In the case of CCATCCCGGT, the switch fluorescence ratio is reported as 1.1.

AATCGTGCGA was tested, and the switch fluorescence ratio was 0.985.

With ACGGCACTTT the switch fluorescence ratio was 1.44.

For TAATTCTGCT, the switch fluorescence ratio was 1.03.

ACCGGGATAG gave a switch fluorescence ratio of 1.31.

ATGCGTACAC showed a switch fluorescence ratio of 1.05.

With AAAGTCCCGG the switch fluorescence ratio was 0.992.

With TAGGAAATGG the switch fluorescence ratio was 1.01.

With ACGGTGCCGG the switch fluorescence ratio was 1.01.

TGATTCCTG showed a switch fluorescence ratio of 0.998.

For AATAGTGGAT, the switch fluorescence ratio was 0.988.

With AGGTAGGTTA the switch fluorescence ratio was 1.

In the case of ATAGCTTCCA, the switch fluorescence ratio is reported as 1.12.

In the case of TCTGTGTGAC, the switch fluorescence ratio is reported as 0.995.

For GAAAGTCTCT, the switch fluorescence ratio was 1.01.

Sequence TCCGAAGGGC has a switch fluorescence ratio of 1.3.

ATATGAGAAA showed a switch fluorescence ratio of 1.03.

In the case of GATATCAAC, the switch fluorescence ratio is reported as 0.953.

Work on ATGTAAACCC yielded a switch fluorescence ratio of 0.999.

With AAATTACAAA the switch fluorescence ratio was 1.04.

With TAAGGCGGGA the switch fluorescence ratio was 0.961.

Sequence CAATGTCTAG has a switch fluorescence ratio of 0.952.

In the case of GAGACACCT, the switch fluorescence ratio is reported as 1.25.

With AGGTTCGAGA the switch fluorescence ratio was 0.998.

With TGGAGCAATC the switch fluorescence ratio was 1.42.

In the case of ATGTCAAATT, the switch fluorescence ratio is reported as 0.964.

CCCTGGTTCG showed a switch fluorescence ratio of 1.03.
